Measured values published in PubChem BioAssay AID588855 (National Center for Advancing Translational Sciences (NCATS), 2011).
About 5,000 (1.2%) of roughly 410,000 compounds were called active. The inconclusive results got no clear call from the source; some entries with a clear call stand among them for comparison. Calls follow the shape of the dose curve; as a rule, active = well fitted inhibition curve with a large enough effect; inconclusive = small, poorly fitted or top-dose-only effect; inactive = no such curve, though single readings can be large or run the other way. Where the call is inconclusive, the potency comes from a doubtful curve fit.

experiment: qHTS for Inhibitors of TGF-b; conditions: HepG2 CAGA-GFP TGF-b/SMAD3 reporter, GFP fluorescence, 18 h, TGF-beta stimulated, 500 pg/mL final; series mostly up to 46.1 µM; also: nearly all actives have a fitted effect of over 65% in size
How it was run: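 GFP signal (ex488/em500-530) from TGF-beta-stimulated HEPG2 CAGA-GFP cells, 500 pg/mL final, 18 h at 37 degrees C in DMEM plus 1% FBS, normalized to unstimulated and DMSO-stimulated controls.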
Potency is read from the fitted curve at half-maximal effect; tags tell the direction and shape of the fitted curve.

SMILES	Potency
CC(C)(C)c1ccc(S(=O)(=O)Nc2ccc(C(=O)N3CCCC3)cc2)cc1	inconclusive: 0.708 µM [inhibitor, full curve, poor fit]
Cc1cccc(C)c1NC(=O)CN1C(=O)S/C(=C\c2cccn2C)C1=O	inactive
Cc1ccc(-c2csc(N3CCC[C@@H]3C(=O)NCCn3c(C(F)(F)F)nc4ccccc43)n2)cc1	inconclusive: 22.4 µM [inhibitor, single point]
CCOc1ccccc1NC(=O)c1nc(S(=O)(=O)Cc2ccccc2)ncc1Cl	active: 5.01 µM
CC(=O)Nc1nonc1-c1nnc(SCC(=O)Nc2ccc(C)cc2C)n1C	inactive
O=C(Nc1ccc(SC(F)F)cc1)c1cc(-c2ccc3c(c2)OCCO3)on1	inconclusive: 0.501 µM [inhibitor, full curve, poor fit]
CCCCCCC(=O)NC(Nc1ccc(S(N)(=O)=O)cc1)C(Cl)(Cl)Cl (stereo not given)	inconclusive: 11.2 µM [inhibitor, partial curve, poor fit]
C=C[C@]1(C)C=C2C(=O)[C@@]3(O)OC(=O)[C@@]4(CCCC(C)(C)[C@H]34)[C@@]2(O)CC1	inconclusive: 3.16 µM [inhibitor, full curve, poor fit]
C#CCN(C[C@H]1[C@H](OC(=O)NCc2ccco2)[C@H](OC(=O)NCc2ccco2)C[C@@H](C(=O)OC)[C@H]1C(=O)OC)S(=O)(=O)c1ccc(C)cc1	inactive
CCCSc1ccc([C@H]2N[C@@](C)(C(=O)OC)[C@H]3C(=O)N(C)C(=O)[C@@H]23)cc1OC	inactive
C=C1CCN(C(CC(C)C)C(=O)NCc2ccc(Cl)cc2)S(=O)(=O)c2ccccc21 (stereo not given)	inconclusive: 25.1 µM [inhibitor, single point]
O=C(c1ccc(S(=O)(=O)NCC2CCCO2)cc1)N1CCN(c2cccc(Cl)c2)CC1 (stereo not given)	inactive
COc1ccc2c(c1)CCc1c(C(=O)NCC(C)C)noc1-2	inactive
C[C@@]12C(=O)Nc3ccccc3C(=O)N1[C@H]1c3cc(Br)ccc3OC[C@@H]1[C@@H]2c1ccccc1	inconclusive: 35.5 µM [inhibitor, single point]
COc1ccccc1-c1nc(-c2ccc(Br)o2)no1	inconclusive: 0.708 µM [inhibitor, full curve]
COc1ccc(-c2cn(-c3ccccc3)c3[n+]2CCS3)cc1	inconclusive: 3.98 µM [inhibitor, full curve, poor fit]
NC1=NC[C@H](Cc2ccc(O)cc2)N1CCCCC1CCCCC1	inconclusive: 14.1 µM [inhibitor, partial curve]
COc1ccccc1OCCn1cc(C(=O)c2cccs2)c2ccccc21	inconclusive: 7.08 µM [inhibitor, partial curve]
CCC[C@H]1CC(=O)C=C(c2ccc(OC)cc2)ON1C(=O)OC(C)(C)C	inconclusive: 35.5 µM [inhibitor, single point]
COc1ccc(Cl)cc1NC(=O)Cn1ccn(Cc2ccc(C)cc2)c(=O)c1=O	inconclusive: 35.5 µM [inhibitor, single point]
COC(=O)c1ccc(OC(=O)C2CSC3(C)CCC(=O)N23)cc1 (stereo not given)	inactive
O=C(COC(=O)CNC(=O)c1ccc(Cl)c([N+](=O)[O-])c1)NNC(=O)c1ccccc1F	inactive

SMILES	Potency
COc1ccc(/C=C/C(=O)Nc2ccccc2C)cc1S(=O)(=O)N1CCOCC1	inconclusive: 1.12 µM [inhibitor, full curve, poor fit]
CCOc1c2ccc(C(=O)NCc3ccc(C(F)(F)F)cc3C(F)(F)F)cc2nn1C	inconclusive: 35.5 µM [inhibitor, single point]
CCn1c2nc(SCCN3CCOCC3)nnc2c2cc(C)cc(C)c21	inconclusive: 35.5 µM [inhibitor, single point]
Cc1cccc(C(=O)NNC2=C(C(=O)C(F)(F)F)CCC2)c1O	inconclusive: 35.5 µM [inhibitor, single point]
CCOc1ccc(C(=O)NCCn2cc(SCC(=O)NCCc3ccc(OC)c(OC)c3)c3ccccc32)cc1	inconclusive: 7.94 µM [inhibitor, partial curve]
O=C(CN1C(=O)C(=O)c2ccccc21)c1ccccc1	inconclusive: 22.4 µM [inhibitor, single point]
CCOc1ccc(C(=O)N/N=C(\c2ccccc2)c2ccccn2)cc1	inconclusive: 17.8 µM [inhibitor, partial curve, poor fit]
CCCCC(=O)Nc1nnn(CCC)n1	inactive
O=C(Nc1ccc(F)cc1)[C@H](Cc1ccccc1)N1Cc2ccccc2C1=O	inconclusive: 10 µM [inhibitor, partial curve, poor fit]
CCOCCCNC(=S)N1CCCN(c2nc3cc(C)cc(C)c3cc2C#N)CC1	inactive
COc1cc(/C=C/c2cc(C(F)(F)F)[nH]c(=O)n2)cc(OC)c1OC	inconclusive: 31.6 µM [inhibitor, single point]
CCCCCn1c(CN2CCN(c3cccc(Cl)c3)CC2)nc2c1c(=O)[nH]c(=O)n2C	inconclusive: 35.5 µM [inhibitor, single point]
CC1=NNC(=O)C1C(c1ccccc1)C(C#N)C#N (stereo not given)	inconclusive: 7.08 µM [inhibitor, partial curve]
CC(C)[C@H](NC(=O)N1CCn2c1nc1ccccc12)C(=O)N1CCCCC1	inactive
Cc1ccccc1OCc1ccc(-c2nc(C#N)c(NCCCN(C)C)o2)o1	inconclusive: 28.2 µM [inhibitor, single point]
Cc1ccc(C(=O)Nc2ccc(Cl)c(-c3nc4ncccc4o3)c2)c(C)c1	inconclusive: 35.5 µM [inhibitor, single point]
CCCC(=O)C1=C(N2CCCCC2)CC(C)(C)C(C(=O)OC)C1=O (stereo not given)	inactive
Nc1nonc1-n1nnc(C(=O)N/N=C/c2ccccc2Cl)c1CN1CCOCC1	inactive
COc1ccc(NS(=O)(=O)c2cccc(NC(=O)c3ccccn3)c2)cc1	inconclusive: 17.8 µM [inhibitor, single point]
Cc1ccc(OCc2ccc(C(=O)NCc3cccnc3)cc2)cc1C	inconclusive: 20 µM [inhibitor, partial curve, poor fit]
Cc1ccc(C)c(NC(=O)Cn2cc(C(=O)c3ccncc3)c(=O)c3cc(F)ccc32)c1	inactive
O=C(N/N=C/c1ccccn1)c1ccc(Cl)cc1	inconclusive: 11.2 µM [inhibitor, partial curve, poor fit]

SMILES	Potency
Cc1cc(C)c2c(CC(=O)N(Cc3ccc(N(C)C)cc3)Cc3ccco3)coc2c1	inconclusive: 35.5 µM [inhibitor, single point]
ClCC1CSC(=NC23CC4CC(CC(C4)C2)C3)O1 (stereo not given)	inconclusive: 17.8 µM [inhibitor, partial curve, poor fit]
CCN(CCNC(=O)CN1CCN(Cc2ccc(Cl)cc2)C1=O)c1ccccc1	inconclusive: 35.5 µM [inhibitor, single point]
O=C(NCCC(F)(F)F)c1cccc2c(-c3ccc(F)c(F)c3)coc12	inconclusive: 35.5 µM [inhibitor, single point]
Cc1c(Cl)ccc2sc(N3CCN(C(=O)c4ccco4)CC3)nc12	inconclusive: 35.5 µM [inhibitor, single point]
COc1cccc(-n2cc(CN(C)Cc3nc(Cc4ccccc4)no3)cn2)c1	inactive
COc1cc(-c2noc(C)c2C#Cc2ccccn2)cc(OC)c1OC	inconclusive: 7.94 µM [inhibitor, partial curve, poor fit]
C=CCSc1nnc2n(-c3ccccc3OC)c(=O)c3c4c(sc3n12)CCC4	inconclusive: 0.794 µM [inhibitor, full curve]
CCN(CC)CCCNC(=O)c1cc2nc3c(c(C(F)(F)F)n2n1)CCc1ccccc1-3	inactive
OC[C@H](S)CS	inconclusive: 2.24 µM [inhibitor, full curve]
CCN(CC)S(=O)(=O)c1ccc2c(c1)N(CC(=O)N1CCN(c3cccc(C(F)(F)F)c3)CC1)C(=O)CO2	inconclusive: 35.5 µM [inhibitor, single point]
O=S(=O)(NCCc1cn2ccccc2n1)c1ccc(-c2ccccc2)cc1	inactive
COc1cccc(S(=O)(=O)Nc2ccc(C(O)(C(F)(F)F)C(F)(F)F)cc2)c1	inconclusive: 14.1 µM [inhibitor, single point]
CC(C)CNC(=O)COc1ccc(Sc2ccc(OCC(=O)NCC(C)C)cc2)cc1	inactive
CN(C)c1ccc(C#Cc2ccc3cc(CCCO)oc(=O)c3c2)cc1	inconclusive: 11.2 µM [inhibitor, partial curve]
CCCCCCCCCCCCCCCC(=O)Nc1ccn(C2OC(CO)C(O)C2O)c(=O)n1 (stereo not given)	inactive
COc1ccc(Cl)cc1S(=O)(=O)N1CCN=C1Cc1ccccc1	inactive
CC(C)c1ccc(/C=C(\c2nc3ccccc3[nH]2)S(=O)(=O)c2ccccc2)cc1	active: 7.94 µM
CO[C@H]1/C=C\O[C@@]2(C)Oc3c(C)c(O)c4c(O)c(c(C=NN5CCN(C6CCCC6)CC5)c(O)c4c3C2=O)NC(=O)C(C)=CC=C[C@H](C)[C@H](O)[C@@H](C)[C@@H](O)[C@@H](C)[C@H](OC(C)=O)[C@H]1C	active: 11.2 µM
c1ccc(-c2nnc(SCc3ccncc3)o2)cc1	inactive
CC(C)(C)NC(=O)C(c1cccs1)N(CC1CCCO1)C(=O)c1ccc(-c2ccccc2)[nH]1 (stereo not given)	inconclusive: 28.2 µM [inhibitor, single point]
